# Reference: the supplement of paper PMC8728848
# The other results are listed elsewhere or left out.
# Tests used:
# Experiment in all cases: glycan array binding signal (z-score within array); higher = stronger binding
# Settings in all cases: glycan notation: IUPAC condensed, linker removed
# [1] = target: Glc(b1-3)Glc(b1-3)Glc(b1-3)Glc(b1-3)Glc(b1-3)Glc(b1-3)Glc(b1-3)[Glc(b1-6)]Glc(b1-3)Glc
# Outline: (§1)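 Glycan array data were curated from 3228 arrays in the Consortium for Functional Glycomics database and kept only where the protein sequence was available. Glycan names were converted to IUPAC-condensed notation, and columns mapping to the same glycan were averaged. The binding signal is a within-array Z-score, averaged across arrays of the same protein sequence at different concentrations or buffers and across linkers. Negative Z-scores can be read as non-binding.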
# [2] = target: Glc(b1-3)Glc(b1-3)Glc(b1-3)Glc(b1-3)Glc(b1-3)Glc(b1-3)[Glc(b1-6)]Glc(b1-3)Glc(b1-3)Glc
# Outline: as §1
# [3] = target: Glc(b1-3)Glc(b1-3)Glc(b1-3)Glc(b1-3)[Glc(b1-6)]Glc(b1-3)Glc(b1-3)Glc(b1-3)Glc(b1-3)Glc
# Outline: as §1
# [4] = target: Glc(b1-3)Glc(b1-3)Glc(b1-3)[Glc(b1-6)]Glc(b1-3)Glc(b1-3)Glc(b1-3)Glc(b1-3)[Glc(b1-6)]Glc(b1-3)Glc
# Outline: as §1
# [5] = target: Glc(b1-3)Glc(b1-3)[Glc(b1-6)]Glc(b1-3)Glc(b1-3)Glc(b1-3)Glc(b1-3)Glc(b1-3)Glc(b1-3)Glc
# Outline: as §1
# [6] = target: Glc(b1-3)Glc(b1-4)Glc
# Outline: as §1
# [7] = target: Glc(b1-3)Glc(b1-4)Glc(b1-4)Glc
# Outline: as §1
# [8] = target: Glc(b1-3)Glc(b1-4)Glc(b1-6)Glc(b1-4)Glc
# Outline: as §1
# [9] = target: Glc(b1-3)[Glc(b1-6)]Glc(a1-3)Glc(b1-3)[Glc(b1-6)]Glc
# Outline: as §1
# [10] = target: Glc(b1-3)[Glc(b1-6)]Glc(b1-3)Glc(b1-3)Glc(b1-3)Glc(b1-3)Glc(b1-3)Glc(b1-3)Glc
# Outline: as §1
# [11] = target: Glc(b1-4)Glc
# Outline: as §1
# [12] = target: Glc(b1-4)Glc(b1-3)Glc
# Outline: as §1
# [13] = target: Glc(b1-4)Glc(b1-3)Glc(b1-4)Glc
# Outline: as §1
# [14] = target: Glc(b1-4)Glc(b1-4)Glc
# Outline: as §1
# [15] = target: Glc(b1-4)Glc(b1-4)Glc(b1-3)Glc
# Outline: as §1
# [16] = target: Glc(b1-4)Glc(b1-4)Glc(b1-3)Glc(b1-4)Glc(b1-4)Glc(b1-3)Glc
# Outline: as §1
# [17] = target: Glc(b1-4)Glc(b1-4)Glc(b1-4)Glc
# Outline: as §1
# [18] = target: Glc(b1-4)Glc(b1-4)Glc(b1-4)Glc(b1-3)Glc
# Outline: as §1
# [19] = target: Glc(b1-4)Glc(b1-4)Glc(b1-4)Glc(b1-4)Glc
# Outline: as §1
# [20] = target: Glc(b1-4)Glc(b1-4)Glc(b1-4)Glc(b1-4)Glc(b1-4)Glc
# Outline: as §1
# [21] = target: Glc(b1-4)Glc(b1-4)Glc(b1-4)Glc(b1-4)Glc(b1-4)Glc(b1-4)Glc
# Outline: as §1
# [22] = target: Glc(b1-4)Glc(b1-4)Glc(b1-4)Glc(b1-4)Glc(b1-4)Glc(b1-4)Glc(b1-4)Glc
# Outline: as §1
# [23] = target: Glc(b1-4)Glc(b1-4)Glc(b1-4)Glc(b1-4)Glc(b1-4)Glc(b1-4)Glc(b1-4)Glc(b1-4)Glc
# Outline: as §1
# [24] = target: Glc(b1-4)Glc(b1-4)Glc(b1-4)Glc(b1-4)Glc(b1-4)Glc(b1-4)Glc(b1-4)Glc(b1-4)Glc(b1-4)Glc
# Outline: as §1
# [25] = target: Glc(b1-4)Glc(b1-4)Glc(b1-4)Glc(b1-4)Glc(b1-4)Glc(b1-4)Glc(b1-4)Glc(b1-4)Glc(b1-4)Glc(b1-4)Glc
# Outline: as §1
# [26] = target: Glc(b1-4)Glc(b1-4)Glc(b1-4)Glc(b1-4)Glc(b1-4)Glc(b1-4)Glc(b1-4)Glc(b1-4)Glc(b1-4)Glc(b1-4)Glc(b1-4)Glc
# Outline: as §1
# [27] = target: Glc(b1-4)Glc(b1-4)Glc(b1-4)Glc(b1-4)Glc(b1-4)Glc(b1-4)Glc(b1-4)Glc(b1-4)Glc(b1-4)Glc(b1-4)Glc(b1-4)Glc(b1-4)Glc
# Outline: as §1
# [28] = target: Glc(b1-6)Glc
# Outline: as §1
# [29] = target: Glc(b1-6)Glc(b1-6)Glc
# Outline: as §1
# [30] = target: Glc(b1-6)Glc(b1-6)Glc(b1-6)Glc
# Outline: as §1
# [31] = target: Glc(b1-6)Glc(b1-6)Glc(b1-6)Glc(b1-6)Glc
# Outline: as §1
# [32] = target: Glc(b1-6)Glc(b1-6)Glc(b1-6)Glc(b1-6)Glc(b1-6)Glc
# Outline: as §1
# [33] = target: Glc(b1-6)Glc(b1-6)Glc(b1-6)Glc(b1-6)Glc(b1-6)Glc(b1-6)Glc
# Outline: as §1
# [34] = target: Glc(b1-6)Glc(b1-6)Glc(b1-6)Glc(b1-6)Glc(b1-6)Glc(b1-6)Glc(b1-6)Glc
# Outline: as §1
# [35] = target: Glc(b1-6)Glc(b1-6)Glc(b1-6)Glc(b1-6)Glc(b1-6)Glc(b1-6)Glc(b1-6)Glc(b1-6)Glc
# Outline: as §1
# [36] = target: Glc(b1-6)Glc(b1-6)Glc(b1-6)Glc(b1-6)Glc(b1-6)Glc(b1-6)Glc(b1-6)Glc(b1-6)Glc(b1-6)Glc
# Outline: as §1
# [37] = target: Glc(b1-6)Glc(b1-6)Glc(b1-6)Glc(b1-6)Glc(b1-6)Glc(b1-6)Glc(b1-6)Glc(b1-6)Glc(b1-6)Glc(b1-6)Glc
# Outline: as §1
# [38] = target: Glc(b1-6)Glc(b1-6)Glc(b1-6)Glc(b1-6)Glc(b1-6)Glc(b1-6)Glc(b1-6)Glc(b1-6)Glc(b1-6)Glc(b1-6)Glc(b1-6)Glc(b1-6)Glc(b1-6)Glc(b1-6)Glc
# Outline: as §1
# [39] = target: Man(b1-4)Man(b1-4)Man(b1-4)Man
# Outline: as §1
# [40] = target: Man(b1-4)Man(b1-4)Man(b1-4)Man(b1-4)Man
# Outline: as §1
# [41] = target: Man(b1-4)Man(b1-4)Man(b1-4)Man(b1-4)Man(b1-4)Man
# Outline: as §1
# [42] = target: Xyl(b1-4)Xyl(b1-4)Xyl(b1-4)Xyl(b1-4)Xyl
# Outline: as §1
# [43] = target: Xyl(b1-4)Xyl(b1-4)Xyl(b1-4)Xyl(b1-4)Xyl(b1-4)Xyl
# Outline: as §1
binder,measurement,setting,value
"Unk16A (Cellvibrio mixtus), Q336L6 (protein) VAYNTTGASSSAASSSAPSSASSSSSSAAPVLLSQGRPVTASSNFQPAANAVDGNGGTRWESTHGVSPSWIMVDLGSSKNLSQVIIDWEAANAANYLVQASNNGMSWTTLKIITTGAFGDRTDTHSVAGNYRYVRIYATARSAGNQWGYSIWELKITGN",glycan array binding signal (z-score),[1],1.06
same,glycan array binding signal (z-score),[2],0.531
same,glycan array binding signal (z-score),[3],0.922
same,glycan array binding signal (z-score),[4],0.746
same,glycan array binding signal (z-score),[5],1.63
same,glycan array binding signal (z-score),[6],-0.256
same,glycan array binding signal (z-score),[7],-0.094
same,glycan array binding signal (z-score),[8],0.467
same,glycan array binding signal (z-score),[9],4.32
same,glycan array binding signal (z-score),[10],0.735
same,glycan array binding signal (z-score),[11],-0.546
same,glycan array binding signal (z-score),[12],-0.176
same,glycan array binding signal (z-score),[13],-0.005
same,glycan array binding signal (z-score),[14],-0.37
same,glycan array binding signal (z-score),[15],-0.192
same,glycan array binding signal (z-score),[16],-0.001
same,glycan array binding signal (z-score),[17],-0.382
same,glycan array binding signal (z-score),[18],-0.222
same,glycan array binding signal (z-score),[19],-0.479
same,glycan array binding signal (z-score),[20],-0.582
same,glycan array binding signal (z-score),[21],-0.449
same,glycan array binding signal (z-score),[22],-0.398
same,glycan array binding signal (z-score),[23],0.1
same,glycan array binding signal (z-score),[24],-0.167
same,glycan array binding signal (z-score),[25],-0.292
same,glycan array binding signal (z-score),[26],-0.414
same,glycan array binding signal (z-score),[27],-0.398
same,glycan array binding signal (z-score),[28],-0.397
same,glycan array binding signal (z-score),[29],-0.248
same,glycan array binding signal (z-score),[30],0.035
same,glycan array binding signal (z-score),[31],0.274
same,glycan array binding signal (z-score),[32],-0.017
same,glycan array binding signal (z-score),[33],-0.204
same,glycan array binding signal (z-score),[34],-0.21
same,glycan array binding signal (z-score),[35],-0.141
same,glycan array binding signal (z-score),[36],0.062
same,glycan array binding signal (z-score),[37],-0.49
same,glycan array binding signal (z-score),[38],-0.169
same,glycan array binding signal (z-score),[39],-0.58
same,glycan array binding signal (z-score),[40],-0.593
same,glycan array binding signal (z-score),[41],-0.655
same,glycan array binding signal (z-score),[42],-0.659
same,glycan array binding signal (z-score),[43],-0.658
